The record followed here is PubChem BioAssay AID602293 (National Center for Advancing Translational Sciences (NCATS), 2012).

Structures are written as SMILES. Out of some 1,300 compounds screened, about 30 (2%) were called active. Not shown: some 10% with an inconclusive outcome. The call rests on the fitted dose curve; in most records, active means well fitted inhibition curve with a large enough effect; inconclusive means small, poorly fitted or top-dose-only effect; inactive means flat fitted curve, though single readings scatter. The list shows a part of the results.
On the % scale 0 is the no-effect control and ±100 the full control effect.

The assay is described as follows: qHTS for antagonists of the Thyroid Stimulation Hormone Receptor: Hit Validation in HTRF Activity in a Luteinizing Hormone Receptor Cell Line. To be noted: LHR-expressing cell line, cAMP HTRF, antagonist mode; series mostly up to 58 µM; activity change, negative = inhibition: at the top concentration. A digest of the protocol: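 Counter-screen on LH receptor–transfected HEK 293 cells: 30 min compound exposure at room temperature in medium containing 100 uM RO 20-1724 phosphodiesterase inhibitor. Cellular cAMP read by competitive HTRF after lysis with d2-cAMP and anti-cAMP antibody (330 nm excitation; 615/660 nm emission).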
In general terms: Quantitative high-throughput screening tests each substance at several concentrations.
As for `CC1=NN(C(N)=S)C(=O)C1N=Nc1ccc(Cl)cc1Cl` (stereo not drawn), the “activity change, negative = inhibition” value is inactive: -0.667%.

Turning to `Cc1ccc(S(=O)(=O)Nc2ccc(N=Nc3ccc(O)cc3)cc2)cc1`, the “activity change, negative = inhibition” value was inactive: -1.68%. The same measure for `Cc1ccc(CCC(=O)NCc2ccccc2)o1`: inactive: 2.28%; for `CC1=C(C(=O)N2CCCC(N3CCN(c4ccccc4C)CC3)C2)OCCO1` (stereo not drawn): inactive: 0.43%; for `COc1ccccc1C(=O)NCCC(=O)Nc1ccc(OC(F)(F)F)cc1`: inactive: 0.988%. On to `O=S(=O)(Cc1cc(Cl)nc(-c2cccnc2)n1)c1ccccc1`, for which the “activity change, negative = inhibition” value was inactive: -1.72%. Next, `Cc1ccccc1NC1c2ccccc2C(=O)N1Cc1ccco1` (stereo not drawn): inactive: 0.697%; `Cc1ccc(NC(=O)COc2cccc3c2OC(C)(C)C3)c(O)c1`: inactive: 0.305%. For `CN(CC(=O)Nc1ccccc1Cl)C(=O)COC(=O)c1nc(Cl)c(Cl)c(Cl)c1Cl`, the “activity change, negative = inhibition” value was inactive: -1.19%.

Take `O=C(CCc1nnc2n(Cc3ccc(Cl)cc3)c(=O)c3ccccc3n12)N1CCN(c2ccccn2)CC1`: the “activity change, negative = inhibition” value was inactive: -0.965%. In the case of `CCCOc1ccc(CSc2nc3ccccc3[nH]2)cc1`, the “activity change, negative = inhibition” value is inactive: -3.51%. Regarding `O=C(Oc1c(Br)cc([N+](=O)[O-])cc1Br)c1cccnc1`, the “activity change, negative = inhibition” value was inactive: 1.3%. Next, `O=[N+]([O-])c1ccc(O)c(/C=N/NC(=S)Nc2ccc(Cl)cc2Cl)c1`: inactive: 0.938%; `CCCCC(=O)N1CCN(c2nc3ccc(Br)cc3s2)CC1`: inactive: -0.833%. `CC1(C)CC(O)CC(C)(C)N1CC(O)COCc1ccccc1` (stereo not drawn): the “activity change, negative = inhibition” value is inactive: -0.154%. As to `CC(c1nnnn1C1CCCCC1)N(Cc1ccccc1)Cc1cccnc1` (stereo not drawn), the “activity change, negative = inhibition” value is inactive: 2.29%. Next, `Cc1ccc(C(=O)C2=C(O)C(=O)N(c3ncccn3)C2c2ccccc2F)o1` (stereo not drawn): inactive: -6.53%; `OCCSc1nnc(Nc2ccccc2)s1`: inactive: 0.323%; `N#CC1=C(N)NC(SCc2ccc(Br)cc2)=C(C#N)C12CCCCC2`: inactive: -0.0416%.

Consider `Cc1nc2ncnn2c(N2CCCC(C(=O)Nc3ccccc3Br)C2)c1C` (stereo not drawn), for which the “activity change, negative = inhibition” value was inactive: -1.19%. Next, `CCOC(=O)COc1ccc(S(=O)(=O)NCCC2=CCCCC2)cc1`: inactive: 1.59%; `Nc1ccn(Cc2ccccc2F)n1`: inactive: 3.27%. Next, `S=c1[nH]nc(-c2ccccc2Cl)n1Cc1ccccc1`: inactive: -0.212%.

Consider `Cc1ccc(-n2[nH]c(C)c(/C=N/Nc3ccc([N+](=O)[O-])cc3[N+](=O)[O-])c2=O)cc1C`, for which the “activity change, negative = inhibition” value is inactive: 1.42%. For the compound `COc1ccc(Nc2ccc([N+](=O)[O-])c3nonc23)c(OC)c1`, the “activity change, negative = inhibition” value was inactive: 1.19%.

Regarding `CC(C)c1nnc(NC(=O)c2nc(S(=O)(=O)Cc3ccccc3F)ncc2Cl)s1`, the “activity change, negative = inhibition” value is inactive: -6.24%.

Consider `O=C(CSc1nc2cc(Cl)c(Cl)cc2[nH]1)c1ccc2c(c1)OCO2`, for which the “activity change, negative = inhibition” value was inactive: 2.41%. In the case of `Cc1cc(/C=N/n2c(COc3ccccc3C)nc3ccccc3c2=O)c(O)c([N+](=O)[O-])c1`, the “activity change, negative = inhibition” value is inactive: 1.53%. The same measure for `COCCNc1oc(Cc2cccc3ccccc23)nc1C#N`: inactive: 0.212%. Take `Cc1ccc(/C=C/C(=O)Nc2ccc(Oc3ccccc3)cc2)o1`: the “activity change, negative = inhibition” value was inactive: -5.47%.

`Cc1ccc2c(CN3CCN(S(=O)(=O)c4ccc5c(c4)OCCO5)CC3)cc(=O)oc2c1C`: the “activity change, negative = inhibition” value was inactive: -1.91%. For the compound `N#Cc1c(F)cccc1N1CCN(Cc2ccc3c(c2)OCO3)CC1`, the “activity change, negative = inhibition” value is inactive: -0.93%.

In the case of `COc1ccc(CCNc2ncnc3c2[nH]c2cc(OC)c(OC)cc23)cc1OC`, the “activity change, negative = inhibition” value was inactive: -3.52%. The same measure for `CCN(CC)S(=O)(=O)c1ccc(Oc2ccc(S(=O)(=O)N(CC)CC)cc2)cc1`: inactive: -2.52%; for `CC(Sc1nnc(N)s1)c1ccccc1Cl` (stereo not drawn): inactive: 0.519%; for `Cc1onc(-c2ccccc2)c1NC(=O)N(Cc1ccccc1)C(C)C`: inactive: -0.992%. The same measure for `CCN(c1cccc(C)c1)S(=O)(=O)c1cn(CC(=O)OC)c2ccc([N+](=O)[O-])cc12`: inactive: 0.831%; for `O=S(=O)(Nc1cccnc1)c1cc(Cl)ccc1Cl`: inactive: 2.54%; for `O=C(COc1cccc(Cl)c1)Nc1nc(-c2ccc(S(=O)(=O)N3CCOCC3)cc2)cs1`: inactive: -1.65%.

Turning to `Cc1sc2nc(-c3ccccn3)[nH]c(=O)c2c1-c1ccccc1`, the “activity change, negative = inhibition” value is inactive: -0.211%.

`O=C(N/N=C/c1ccc[nH]1)c1sc2ccccc2c1Cl`: the “activity change, negative = inhibition” value is inactive: 2.85%.

As for `Cc1ccc(Nc2cc(C)nc3ccc(C)cc23)cc1`, the “activity change, negative = inhibition” value is inactive: -1.33%. The same measure for `CC(=O)c1sc(NC(=O)c2cc(-c3ccccc3)nn2-c2ccccc2)nc1C`: inactive: -8.29%; for `COc1ccc(Cn2nnnc2C(C(C)C)N2CCN(c3ccccc3OC)CC2)cc1` (stereo not drawn): inactive: -1.3%.

For `O=C(CNC(=O)c1ccco1)OCC(=O)c1ccccc1`, the “activity change, negative = inhibition” value was inactive: 0.433%. The same measure for `Cc1cc2c(NCc3ccccc3)ncnc2s1`: inactive: 0.267%; for `Cc1ccc(NC(=O)Nc2ccc3c(c2)N(C)C(=O)CS3)cc1C`: inactive: 1.04%; for `CCOc1ccc(-c2csc(/C(C#N)=C\c3ccc(O)c([N+](=O)[O-])c3)n2)cc1`: inactive: -4.49%.

Consider `N#C/C(=N\Nc1cccc([N+](=O)[O-])c1)C(=O)c1ccc(Br)cc1`, for which the “activity change, negative = inhibition” value is inactive: -1.57%. In the case of `Cc1ccccc1CS(=O)(=O)c1nnc([C@H](Cc2ccccc2)NC(=O)OC(C)(C)C)o1`, the “activity change, negative = inhibition” value is inactive: -0.485%. For `COc1ccc(-c2nc(CS(=O)CC(=O)NCc3ccccc3)c(C)o2)cc1OC` (stereo not drawn), the “activity change, negative = inhibition” value is inactive: 0.304%. As to `CCOc1cc(C(=O)NC2CC(C)(C)NC(C)(C)C2)cc(OCC)c1OCC`, the “activity change, negative = inhibition” value was inactive: 1.9%.

For `Fc1ccc2nc(Nc3nc4c(F)cc(F)cc4s3)sc2c1`, the “activity change, negative = inhibition” value is inactive: -7.21%.
